In ChEMBL document CHEMBL4888484, “Replenishing the malaria drug discovery pipeline: Screening and hit evaluation of the MMV Hit Generation Library 1 (HGL1) against asexual blood stage Plasmodium falciparum ,using a nano luciferase reporter read-out” (2022):
The campaign covered roughly 150,000 compounds. About 540 (0.36%) showed an effect of 50% or more. This is one part of the list.

These molecules were tested on Plasmodium falciparum (assay: Primary screen in NF54 nanoGlo assay, in single point, at 2uM, 72h; a lower Z score goes with more inhibition). Details: timepoint 72 hour.
Format: functional, Erythrocyte
With `Cc1noc(C)c1NC(=O)N1CCS(=O)(=O)C(C)(C)C1` the “% Inhibition” value was 14% and the Z score was -1.61.
In the case of `Cc1cc(CS(=O)(=O)CC(=O)N2c3ccccc3C[C@@H]2C)on1`, the “% Inhibition” value is reported as 0% and the Z score is reported as -0.02.
With `Cc1cc(NC(=O)Nc2cccnn2)ccc1O` the “% Inhibition” value was -7% and the Z score was 1.19.
With `Cc1cccc(Cn2c(C(=O)NCc3ccco3)cc3cc(NC(=O)CCc4ccccc4)ccc32)c1` the “% Inhibition” value was -3% and the Z score was 0.41.
`Cc1cc(C(=O)NC2CCCC2)cs1` was tested, and the “% Inhibition” value was 2% and the Z score was -0.33.
In the case of `Cc1ocnc1C(=O)N1c2ccccc2C[C@@H]1C`, the “% Inhibition” value is reported as 17% and the Z score is reported as -2.17.
With `N#Cc1cccc(OC2CCN(C(=O)c3ccc4c(c3)CCC=C4)CC2)c1` the “% Inhibition” value was -1% and the Z score was 0.2.
With `Cc1oc(C(C)C)nc1C(=O)NC[C@H]1CCCN(CC(F)(F)F)C1` the “% Inhibition” value was -5% and the Z score was 0.59.
`CNC(=O)Cc1noc(C[C@H](C)C(=O)c2ccc(Cl)cc2)n1` was tested, and the “% Inhibition” value was -16% and the Z score was 1.59.
`O=C1CN(C(=O)CN2CCN(Cc3ccc4c(c3)CCO4)CC2)c2ccccc2N1` was tested, and the “% Inhibition” value was -3% and the Z score was 0.52.
With `Cc1noc(CNC(=O)C2CCN(C(=O)c3ccc4nsnc4c3)CC2)n1` the “% Inhibition” value was -15% and the Z score was 2.25.
With `CC1CCC(C)N1C(C)C(=O)NCC(O)c1ccncc1` (configuration not stated) the “% Inhibition” value was 6% and the Z score was -0.51.
In the case of `CC#CC(=O)NCC(C)(C)Oc1ccccc1`, the “% Inhibition” value is reported as -9% and the Z score is reported as 1.56.
With `COCC(O)CN(C)S(=O)(=O)N1CC(C)CC(C)C1` (configuration not stated) the “% Inhibition” value was -9% and the Z score was 1.12.
In the case of `O=C(NCCOCCn1ccnc1)c1ccsc1`, the “% Inhibition” value is reported as -6% and the Z score is reported as 0.64.
With `Cc1ccc(CNC(=O)N2CCc3[nH]c(-c4ccccc4)nc3C2)cc1` the “% Inhibition” value was -11% and the Z score was 1.61.
In the case of `CC(C)(C)OC(=O)N1Cc2sc(N)nc2C1(C)C`, the “% Inhibition” value is reported as -20% and the Z score is reported as 3.25.
In the case of `CC(=O)N1CCC[C@H](c2noc(-c3cnc4ccccc4n3)n2)C1`, the “% Inhibition” value is reported as -18% and the Z score is reported as 2.61.
In the case of `Cc1ccc(-n2nc(N3CCCN(C(=O)c4ccc(F)c(Cl)c4)CC3)ccc2=O)cc1`, the “% Inhibition” value is reported as 5% and the Z score is reported as -0.54.
`CC1CCN(S(=O)(=O)c2ccc(-c3noc(CN4C(=O)COc5ccccc54)n3)cc2)CC1` was tested, and the “% Inhibition” value was 1% and the Z score was -0.1.
With `O=C(CCn1cc(Br)ccc1=O)N1CCC[C@H](O)C1` the “% Inhibition” value was -5% and the Z score was 0.69.
With `Cc1ncoc1C(=O)N1CCN(C(c2ccccc2)c2ccccc2)CC1` the “% Inhibition” value was -10% and the Z score was 1.32.
For `COc1cc(-c2nnc3n2CCOC3)ccc1OCCC(C)C`, the “% Inhibition” value was 12% and the Z score was -1.6.
With `c1ccc2c(c1)CN(C1CCOCC1)CCO2` the “% Inhibition” value was 3% and the Z score was -0.38.
In the case of `Cc1ccc(C)c(NS(=O)(=O)c2cc(C(=O)N3CCc4ccccc4C3)ccc2Cl)c1`, the “% Inhibition” value is reported as 0% and the Z score is reported as -0.04.
`O=C(NCc1ccc(C2CC2)nc1)c1ccncc1` was tested, and the “% Inhibition” value was -16% and the Z score was 1.82.
In the case of `Cc1occc1S(=O)(=O)Cc1ncc(-c2ccccc2)o1`, the “% Inhibition” value is reported as 19% and the Z score is reported as -2.19.
`CN1CCCCC[C@H]1c1nc(CC(N)=O)nn1CCCO` was tested, and the “% Inhibition” value was 5% and the Z score was -0.89.
For `C[C@H](NC(=O)CC1CCCCC1)C(=O)N1CCC(Cc2ncc[nH]2)CC1`, the “% Inhibition” value was 3% and the Z score was -0.55.
`COc1ncnc(N(C)C)c1NC(=O)NCC(F)(F)C(F)F` was tested, and the “% Inhibition” value was -5% and the Z score was 0.49.
`Cc1ccc(CN2C[C@@H](O)C[C@H]2c2nnc3n2CCN(C(=O)C(C)C)C3)s1` was tested, and the “% Inhibition” value was 1% and the Z score was -0.11.
In the case of `FC1(F)C[C@@H](COc2ccncc2)N(C2CCCCC2)C1`, the “% Inhibition” value is reported as -4% and the Z score is reported as 0.6.
`C[C@]1(c2nc(C3CC3)no2)CCCN(C(=O)CCC2CCCC2)C1` was tested, and the “% Inhibition” value was -4% and the Z score was 0.45.
In the case of `CCC(c1cccc(Br)c1)C(NC(=O)OC(C)(C)C)C(=O)O` (configuration not stated), the “% Inhibition” value is reported as 23% and the Z score is reported as -2.93.
In the case of `COc1ccc(C(=O)C[n+]2c3c(c(C(=O)O)c4ccccc42)CCCC3)cc1`, the “% Inhibition” value is reported as -13% and the Z score is reported as 1.72.
In the case of `Cc1ccc(N2CC[C@](C)(O)[C@@H](O)C2)nn1`, the “% Inhibition” value is reported as -9% and the Z score is reported as 1.67.
With `CC[C@H]1CN(C(=O)NC2CCCCC2)CC[C@H]1CC(=O)N(CC)C(=O)NCCCN(C)C` the “% Inhibition” value was 31% and the Z score was -3.51.
`CCC(C)NC(=O)C1C(c2ccc(NC(=O)c3ccccc3)cc2)OC(=O)N1Cc1ccccc1` (configuration not stated) was tested, and the “% Inhibition” value was -17% and the Z score was 2.68.
`Cc1nn(C)c(C)c1CCC(=O)N(C)Cc1cnc(-c2ccccc2)s1` was tested, and the “% Inhibition” value was 7% and the Z score was -1.38.
For `CC(C)(C)CCS(=O)(=O)NC(=O)c1cnn(CC(F)(F)F)c1`, the “% Inhibition” value was -14% and the Z score was 2.67.
In the case of `C[C@H]1CN(Cc2ccncc2)c2ccccc2NC1=O`, the “% Inhibition” value is reported as -3% and the Z score is reported as 0.51.
`Cc1noc(-c2ccc3nnc(CC(=O)NCc4cccc(Cl)c4)n3c2)n1` was tested, and the “% Inhibition” value was -3% and the Z score was 0.47.
For `Cc1nc(N)ncc1C(C)NCC1(C(O)C(C)C)CC1` (configuration not stated), the “% Inhibition” value was -5% and the Z score was 1.
In the case of `CCc1onc(C)c1C(=O)N1CCN(C(=O)c2ccc(F)cc2)CC1`, the “% Inhibition” value is reported as 12% and the Z score is reported as -1.6.
For `O=C(Nc1ccc2c(c1)OCCO2)c1ccncc1`, the “% Inhibition” value was -1% and the Z score was 0.14.
`OCc1cc2n(n1)CCN(Cc1cccc3nonc13)C2` was tested, and the “% Inhibition” value was -21% and the Z score was 1.86.
`CC(C)CNC(=O)[C@H](C)NCCn1cccn1` was tested, and the “% Inhibition” value was -2% and the Z score was 0.23.
`COc1ccnc(CNC(=O)N[C@H]2CCCC23CCCCC3)c1F` was tested, and the “% Inhibition” value was 1% and the Z score was -0.15.
`COc1ccc2[nH]c(-c3nnc(Cn4c(C)cc5ccccc54)s3)cc2c1` was tested, and the “% Inhibition” value was 38% and the Z score was -4.36.
In the case of `CCCN1C=NS(=O)(=O)c2cc(C(=O)N3CCN(c4ccccc4OC)CC3)ccc21`, the “% Inhibition” value is reported as -6% and the Z score is reported as 0.96.
In the case of `COc1ccc(CNC(C2CC2)C2CC2)cc1OC[C@@H](O)CN1CCCCCCC1`, the “% Inhibition” value is reported as -8% and the Z score is reported as 1.32.
With `Cc1cc(O)c2cccc(-c3ccc(CO)cc3)c2n1` the “% Inhibition” value was 0% and the Z score was -0.01.
`N#Cc1cc2n(n1)CCCN(C(=O)Cn1cc3ccccc3n1)C2` was tested, and the “% Inhibition” value was -9% and the Z score was 1.42.
`CCN1C(=O)[C@@H](Cc2nc3ccccc3c(=O)n2-c2ccc(Cl)cc2)c2ccccc21` was tested, and the “% Inhibition” value was -19% and the Z score was 2.71.
For `CCN1C(=O)Cc2cc(NC(=O)c3cc(-c4ccccc4)on3)ccc21`, the “% Inhibition” value was -14% and the Z score was 2.01.
`CC(C)c1cc(C(=O)N2C[C@@H]3[C@H]4CC[C@H](CC4)[C@@H]3C2)[nH]n1` was tested, and the “% Inhibition” value was -8% and the Z score was 1.4.
With `CCN(Cc1cn(C)nn1)C(=O)c1cccn1C` the “% Inhibition” value was -4% and the Z score was 0.56.
With `Cc1nn(CC(=O)Nc2ccc3c(c2)OCCO3)c(=O)n1C` the “% Inhibition” value was 11% and the Z score was -1.47.
For `Cc1ccc(C)c(N2CCN(S(=O)(=O)c3cc(C(=O)N4CCCCC4)cs3)CC2)c1`, the “% Inhibition” value was -17% and the Z score was 1.69.
For `COc1ccccc1CC(C)(C)NC(=O)CCc1ccco1`, the “% Inhibition” value was -18% and the Z score was 2.44.
With `CCC(=O)N1CCN(C(=O)c2oc(CC)nc2C)C1` the “% Inhibition” value was -12% and the Z score was 1.8.
With `CC(C)c1ccc(S(=O)(=O)N2CCC3(CCNC(=O)CC3)CC2)cc1` the “% Inhibition” value was -3% and the Z score was 0.31.
`C[C@H]1CN(S(=O)(=O)CCc2ccccc2)C(C)(C)CO1` was tested, and the “% Inhibition” value was -3% and the Z score was 0.34.
With `Cc1cccc(-c2noc(Cn3cccn3)n2)c1` the “% Inhibition” value was -6% and the Z score was 0.68.
`COc1cc(OC)cc(C(=O)Nc2ccc(N3CCN(C(=O)c4ccccc4Cl)CC3)nc2)c1` was tested, and the “% Inhibition” value was -10% and the Z score was 1.44.
In the case of `CCn1c(CC2CCN(C(=O)c3c(C)cccc3OC)CC2)nn(C)c1=O`, the “% Inhibition” value is reported as -8% and the Z score is reported as 0.98.
In the case of `Nc1cc(C(F)(F)F)cc(C2CC2)n1`, the “% Inhibition” value is reported as -6% and the Z score is reported as 0.64.
For `O=C([C@H]1C[C@@H](F)CN1C(=O)Nc1cccc(Cl)c1)N1CCOCC1`, the “% Inhibition” value was 9% and the Z score was -1.63.
`Cc1nn(-c2ccc(F)cc2)c2nc(CCC(C)C)nc(N3CCN(C(=O)COCc4ccccc4)CC3)c12` was tested, and the “% Inhibition” value was 2% and the Z score was -0.32.
For `CN(Cc1cccnc1)C(=O)[C@H]1CCN(c2cnn(Cc3ccccc3)c(=O)c2)C1`, the “% Inhibition” value was -3% and the Z score was 0.43.
`COc1ccc(Cn2nc(CC(N)=O)nc2C[C@H]2CCCOC2)cc1` was tested, and the “% Inhibition” value was -15% and the Z score was 2.64.
`O=C(CCC1CCN(Cc2ccc(CO)o2)CC1)Nc1ccccc1` was tested, and the “% Inhibition” value was -8% and the Z score was 1.2.
In the case of `CCCCn1c(=O)[nH]c2c(C(=O)N3CCN(c4cccc(C)c4)CC3)snc2c1=O`, the “% Inhibition” value is reported as -17% and the Z score is reported as 2.8.
With `Cc1c(F)cccc1NC(=O)NC(C)(C)CCS(C)(=O)=O` the “% Inhibition” value was -3% and the Z score was 0.33.
`C[C@@H](CCn1cncn1)NCCc1cc(Cl)cc(Cl)c1` was tested, and the “% Inhibition” value was 4% and the Z score was -0.49.
With `Cc1ccnc2c1NC(=O)CN2C(=O)c1cncc(F)c1` the “% Inhibition” value was -4% and the Z score was 0.68.
With `COc1c[nH]c(C(=O)N(C)Cc2ccccc2)cc1=O` the “% Inhibition” value was -2% and the Z score was 0.21.
With `O=C1NCCCC[C@@H]1Cc1nc(-c2ccccc2OC(F)F)no1` the “% Inhibition” value was -3% and the Z score was 0.45.
With `COc1cccc(CNC(=O)N(C)Cc2cc(F)c(F)c(F)c2)n1` the “% Inhibition” value was 33% and the Z score was -3.71.
`CN(C1(C#N)CCC1)S(=O)(=O)c1cc(F)ccc1OCC1CC1` was tested, and the “% Inhibition” value was -2% and the Z score was 0.23.
`COc1ccc(CNc2nonc2-c2noc(N)n2)cc1` was tested, and the “% Inhibition” value was 8% and the Z score was -0.97.
With `O=C(NC1CCC2OCCOC2C1)c1ccc(Cl)s1` (configuration not stated) the “% Inhibition” value was -4% and the Z score was 0.82.
For `NC(C(=O)NCC1CC2C=CC1CC2)C1CCC1` (configuration not stated), the “% Inhibition” value was 0% and the Z score was 0.03.
In the case of `CCNC(=O)N1CCO[C@@H](Cc2ccccc2Cl)C1`, the “% Inhibition” value is reported as -3% and the Z score is reported as 0.47.
With `Cc1cc(NC(=O)N2C[C@@H]3[C@H](C2)[C@H]2CC[C@@H]3O2)n(C2CCCCC2)n1` the “% Inhibition” value was -9% and the Z score was 1.6.
With `O=C(CN1CCCC1=O)N[C@H]1CCc2ccccc21` the “% Inhibition” value was -6% and the Z score was 0.71.
